Columns and labels:
[1] = test system: cabbage Alternaria sooty spot fungi (Alternaia brassicicola); experiment: Test Example C: cabbage Alternaria sooty spot, spray treatment of cabbage plants; type: in vivo; conditions: spray treatment of cabbage plants; control value=100{1-(n/3)}
Excerpt: [Test Example C] Cabbage Alternaria Sooty Spot
Test plants (cabbage variety: Shikidori) were cultivated until the cotyledons extended after the sowing of seeds.
<Control Value> Control value=100{1−(n/3)}

[2] = test system: wheat brown rust fungi (Puccinia recondita); experiment: Test Example E: wheat brown rust, spray treatment of wheat plants; type: in vivo; conditions: spray treatment of wheat plants; control value=100{1-(n/3)}
[3] = test system: gray mold fungi (Botrytis cinerea); experiment: Test Example B: tomato gray mold, spray treatment of tomato plants; conditions: spray treatment of tomato plants; control value=100{1-(n/3)}
[4] = test system: grape downy mildew fungus (Plasmopara viticola); experiment: Test Example G: grape downy mildew, spray treatment of grape plants; conditions: 250 ppm spray, 2.5 ml/pot, grape Neomuscat; 7 to 10 days from inoculation
[5] = test system: barley powdery mildew fungi (Blumeria graminis f. sp. hordei); experiment: Test Example D: barley powdery mildew, spray treatment of barley plants; conditions: spray treatment of barley plants; control value=100{1-(n/3)}

| SMILES | Test C control value class (cabbage Alternaria sooty spot) [1] | Test E control value class (wheat brown rust) [2] | Test B control value class (tomato gray mold) [3] | Test G control value class (grape downy mildew) [4] | Test D control value class (barley powdery mildew) [5] |
| --- | --- | --- | --- | --- | --- |
| COc1cc(F)c(-c2c(Br)c(=O)c(Br)cn2-c2ccccc2C)c(F)c1 [Compound 68] | H (H shows the control value of more than 50%) | H (H shows the control value of more than 50%) | H (H shows the control value of more than 50%) | H (H shows the control value of more than 50%) | H (H shows the control value of more than 50%) |
| O=c1c(Cl)cn(CCCC(F)(F)F)c(-c2c(F)cc(F)cc2F)c1Cl [Compound 69] | H (H shows the control value of more than 50%) | H (H shows the control value of more than 50%) | L (L shows the control value of 50% or less) | L (L shows the control value of 50% or less) | L (L shows the control value of 50% or less) |
| O=c1c(Cl)cn(CCCC(F)(F)F)c(-c2c(F)cc(F)cc2F)c1Br [Compound 70] | H (H shows the control value of more than 50%) | H (H shows the control value of more than 50%) | L (L shows the control value of 50% or less) | L (L shows the control value of 50% or less) | L (L shows the control value of 50% or less) |
| O=c1c(Br)cn(CCCC(F)(F)F)c(-c2c(F)cc(F)cc2F)c1Br [Compound 72] | H (H shows the control value of more than 50%) | L (L shows the control value of 50% or less) | L (L shows the control value of 50% or less) | L (L shows the control value of 50% or less) | H (H shows the control value of more than 50%) |
| COc1ccccc1-n1cc(Cl)c(=O)c(Cl)c1-c1c(F)cc(F)cc1F [Compound 75] | H (H shows the control value of more than 50%) | H (H shows the control value of more than 50%) | H (H shows the control value of more than 50%) | L (L shows the control value of 50% or less) | L (L shows the control value of 50% or less) |
| CC(c1ccccc1)n1cc(Cl)c(=O)c(I)c1-c1c(F)cc(F)cc1F (centres unmarked) [Compound 76] | L (L shows the control value of 50% or less) | H (H shows the control value of more than 50%) | H (H shows the control value of more than 50%) | L (L shows the control value of 50% or less) | L (L shows the control value of 50% or less) |
| CC(c1ccccc1)n1cc(Br)c(=O)c(Cl)c1-c1c(F)cc(F)cc1F (centres unmarked) [Compound 77] | L (L shows the control value of 50% or less) | H (H shows the control value of more than 50%) | H (H shows the control value of more than 50%) | L (L shows the control value of 50% or less) | L (L shows the control value of 50% or less) |
| CC(c1ccccc1)n1cc(Br)c(=O)c(Br)c1-c1c(F)cc(F)cc1F (centres unmarked) [Compound 78] | L (L shows the control value of 50% or less) | H (H shows the control value of more than 50%) | H (H shows the control value of more than 50%) | H (H shows the control value of more than 50%) | L (L shows the control value of 50% or less) |
| O=c1c(Cl)cn(Cc2ccccc2Cl)c(-c2c(F)cc(F)cc2F)c1Cl [Compound 79] | H (H shows the control value of more than 50%) | L (L shows the control value of 50% or less) | L (L shows the control value of 50% or less) | L (L shows the control value of 50% or less) | L (L shows the control value of 50% or less) |
| O=c1c(Cl)cn(Cc2ccccc2Cl)c(-c2c(F)cc(F)cc2F)c1Br [Compound 80] | H (H shows the control value of more than 50%) | H (H shows the control value of more than 50%) | L (L shows the control value of 50% or less) | L (L shows the control value of 50% or less) | L (L shows the control value of 50% or less) |
| COc1ccccc1-n1cc(Br)c(=O)c(Cl)c1-c1c(F)cc(F)cc1F [Compound 81] | H (H shows the control value of more than 50%) | H (H shows the control value of more than 50%) | H (H shows the control value of more than 50%) | L (L shows the control value of 50% or less) | H (H shows the control value of more than 50%) |
| COc1cc(F)c(-c2c(Br)c(=O)c(Cl)cn2C(C)c2ccccc2)c(F)c1 (centres unmarked) [Compound 82] | H (H shows the control value of more than 50%) | H (H shows the control value of more than 50%) | H (H shows the control value of more than 50%) | H (H shows the control value of more than 50%) | L (L shows the control value of 50% or less) |
| COc1cc(F)c(-c2c(Cl)c(=O)c(Cl)cn2C(C)c2ccccc2)c(F)c1 (centres unmarked) [Compound 83] | H (H shows the control value of more than 50%) | H (H shows the control value of more than 50%) | H (H shows the control value of more than 50%) | H (H shows the control value of more than 50%) | L (L shows the control value of 50% or less) |
| COc1cc(F)c(-c2c(Br)c(=O)c(Cl)cn2CCCC(F)(F)F)c(F)c1 [Compound 84] | H (H shows the control value of more than 50%) | H (H shows the control value of more than 50%) | H (H shows the control value of more than 50%) | H (H shows the control value of more than 50%) | L (L shows the control value of 50% or less) |
| COc1cc(F)c(-c2c(Cl)c(=O)c(Cl)cn2CCCC(F)(F)F)c(F)c1 [Compound 85] | H (H shows the control value of more than 50%) | H (H shows the control value of more than 50%) | H (H shows the control value of more than 50%) | H (H shows the control value of more than 50%) | L (L shows the control value of 50% or less) |
| O=c1c(Br)cn(Cc2ccccc2Cl)c(-c2c(F)cc(F)cc2F)c1Cl [Compound 86] | H (H shows the control value of more than 50%) | L (L shows the control value of 50% or less) | L (L shows the control value of 50% or less) | L (L shows the control value of 50% or less) | L (L shows the control value of 50% or less) |
| O=c1c(Br)cn(Cc2ccccc2Cl)c(-c2c(F)cc(F)cc2F)c1Br [Compound 87] | H (H shows the control value of more than 50%) | H (H shows the control value of more than 50%) | L (L shows the control value of 50% or less) | L (L shows the control value of 50% or less) | L (L shows the control value of 50% or less) |
| COc1cc(F)c(-c2c(Br)c(=O)c(Cl)cn2Cc2ccccc2Cl)c(F)c1 [Compound 88] | H (H shows the control value of more than 50%) | H (H shows the control value of more than 50%) | H (H shows the control value of more than 50%) | H (H shows the control value of more than 50%) | L (L shows the control value of 50% or less) |
| O=c1c(Cl)cn(Cc2ccccc2Cl)c(-c2c(F)cc(F)cc2F)c1I [Compound 89] | H (H shows the control value of more than 50%) | H (H shows the control value of more than 50%) | H (H shows the control value of more than 50%) | H (H shows the control value of more than 50%) | L (L shows the control value of 50% or less) |

— patent US11000038B2, “Pyridone compounds and agricultural and horticultural fungicides containing the same as active ingredients” (priority 2017, dated 2021)
